Experimental data as given in publication PMC4336329 (PLoS ONE, 2015).
Among all 310,000 compounds or so, about 2,200 (0.71%) showed an effect of 50% or more. Effects have a minus sign here. Some of the results follow.

These compounds were tested against human ether-à-go-go-related gene (hERG) potassium channel (human, UniProt Q12809) (assay: primary screen, population patch clamp on CHO cells stably expressing hERG).
Sequence of human ether-à-go-go-related gene (hERG) potassium channel (Q12809 whole entry, looked up): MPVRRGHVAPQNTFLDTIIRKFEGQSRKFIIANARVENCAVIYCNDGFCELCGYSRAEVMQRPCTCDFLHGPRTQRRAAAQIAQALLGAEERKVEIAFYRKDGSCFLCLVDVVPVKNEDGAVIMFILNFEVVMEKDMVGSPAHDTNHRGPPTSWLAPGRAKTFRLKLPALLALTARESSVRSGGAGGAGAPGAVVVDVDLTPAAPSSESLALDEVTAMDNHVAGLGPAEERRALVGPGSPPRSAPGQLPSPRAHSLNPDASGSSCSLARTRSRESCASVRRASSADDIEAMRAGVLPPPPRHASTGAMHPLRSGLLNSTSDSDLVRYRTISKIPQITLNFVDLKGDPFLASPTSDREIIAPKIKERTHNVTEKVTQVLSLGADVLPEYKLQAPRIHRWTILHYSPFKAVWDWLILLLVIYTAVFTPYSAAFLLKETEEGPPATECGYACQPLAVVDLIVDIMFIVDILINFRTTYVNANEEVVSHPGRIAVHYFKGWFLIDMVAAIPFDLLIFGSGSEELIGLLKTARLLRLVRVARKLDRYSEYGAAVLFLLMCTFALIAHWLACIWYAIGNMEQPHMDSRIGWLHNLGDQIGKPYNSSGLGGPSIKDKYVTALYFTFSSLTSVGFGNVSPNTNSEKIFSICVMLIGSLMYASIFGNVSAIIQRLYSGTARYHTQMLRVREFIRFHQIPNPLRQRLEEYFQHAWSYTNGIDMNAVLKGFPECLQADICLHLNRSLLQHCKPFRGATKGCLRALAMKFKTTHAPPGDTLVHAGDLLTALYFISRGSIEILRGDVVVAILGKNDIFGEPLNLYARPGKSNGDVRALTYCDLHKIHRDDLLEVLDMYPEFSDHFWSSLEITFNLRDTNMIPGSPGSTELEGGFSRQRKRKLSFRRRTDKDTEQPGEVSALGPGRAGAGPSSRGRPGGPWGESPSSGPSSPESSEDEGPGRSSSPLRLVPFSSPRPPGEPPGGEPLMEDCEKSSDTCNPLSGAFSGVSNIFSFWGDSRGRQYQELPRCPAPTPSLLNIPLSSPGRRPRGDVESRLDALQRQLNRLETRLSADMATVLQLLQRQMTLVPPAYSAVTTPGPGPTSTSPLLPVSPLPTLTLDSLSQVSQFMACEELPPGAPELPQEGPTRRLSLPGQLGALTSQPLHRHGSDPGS

| SMILES | hERG current change (%, negative = inhibition) at 1uM |
| --- | --- |
| O=C(NCCCn1ccnc1)Nc1ccc(Cl)cc1Cl | 3.68% |
| COc1ccc(S(=O)(=O)Nc2ccccc2C(=O)NCc2cccnc2)cc1C | 5.06% |
| Cc1cccc(C)c1OCC(O)CN1CCC(CN2C(=O)c3cccc4cccc(c34)C2=O)CC1.Cl (stereo not shown) | -17.1% |
| COCCN(C(=O)CSc1nnc(-c2ccccc2F)n1C)c1c(N)n(Cc2ccccc2)c(=O)[nH]c1=O | -2.28% |
| COc1ccc(NC(=O)c2ccccc2Oc2ccccc2)cc1 | 14.2% |
| Cc1cc2nc3c(=O)[nH]c(=S)[nH]c3nc2cc1NC(=O)C(F)(F)F | 16.3% |
| O=C(/C=C/c1ccccc1F)N1CCN(c2ccccn2)CC1 | 9.99% |
| COc1ccccc1CCC(=O)Nc1ccc(C)cc1Cl | 9.38% |
| O=C(COc1cccnc1[N+](=O)[O-])c1ccc(Cl)s1 | 14.8% |
| COC(=O)C1=C(C)N(Cc2ccco2)C(=O)N[C@@H]1c1cccc(C(F)(F)F)c1 | 10.6% |
| CCOC(=O)C1=C(COC(=O)c2ccccc2[N+](=O)[O-])NC(=O)NC1C (stereo not shown) | 13.3% |
| CCC1(c2ccccc2)NC(=O)N(CC(=O)c2ccc3c(c2)OCO3)C1=O (stereo not shown) | 7.49% |
| CN1CCc2c(OCC(=O)N3CCCc4ccccc43)cccc2C1=O | 5.91% |
| C[n+]1c(-c2ccccc2)cc(-c2ccc(O)cc2)cc1-c1ccccc1.[O-][Cl+3]([O-])([O-])[O-] | -13.9% |
| CC1CC(C)CN(C(=O)COC(=O)c2cc(S(=O)(=O)N3CCOCC3)ccc2F)C1 (stereo not shown) | 6.41% |
| CCCCOC(=O)Nc1nnc(SCCOc2ccc(C)cc2)s1 | 9.95% |
| O=C(O)CCC(=O)NNC(=O)CCC(=O)Nc1ccccc1 | 17.2% |
| O=c1c2ccccc2nc(CSc2ncnc3nc[nH]c23)n1-c1ccccc1 | 16.7% |
| O=C(CCCC(=O)NC1CCCCC1)Nc1ccc([N+](=O)[O-])cc1 | -6.68% |
| Cl.NCCc1ccn[nH]1 | 14% |
| N=C1S/C(=C\c2ccccc2)C(=O)N1c1ccc(F)cc1 | 5.85% |
| NC(=S)N/N=C/c1ccc(Br)o1 | 6.11% |

| SMILES | hERG current change (%, negative = inhibition) at 1uM |
| --- | --- |
| COc1ccc(N2CCN(C(=O)CCC(=O)c3cc(C)sc3C)CC2)cc1 | 2.6% |
| COc1ccc(C(O)Cn2ccsc2=NC(C)=O)cc1 (stereo not shown) | 14% |
| CC1(c2ccc3ccccc3c2)NC(=O)N(CC(=O)N2CCCC(C(F)(F)F)C2)C1=O (stereo not shown) | 1.14% |
| O=C(Cn1cnc2ccccc2c1=O)Nc1ccc(-c2nnc3n2CCCCC3)cc1 | 0.623% |
| CCc1nc2c(s1)CCc1onc(-c3ccc(Cl)cc3)c1-2 | 8.93% |
| CC(C)Oc1cccc(C(=O)C2CCCN(C(=O)c3ccccn3)C2)c1 (stereo not shown) | 9.99% |
| COc1ccc(C2=NOC(Cn3nc(C(=O)NCC4CC4)cc3-c3ccccc3)C2)cc1 (stereo not shown) | -2.34% |
| CCCCNC(=O)[C@@H]1CCCN1S(=O)(=O)c1cccc2cccnc12 | 9.23% |
| Cc1nc2c(C)cccc2c2c1CCN2c1ccccc1F | -25.2% |
| Cc1cc2c(c(=O)n1CCCn1ccnc1)C(c1ccco1)C(C#N)=C(N)O2 (stereo not shown) | 1.32% |
| O=C1Nc2c(Br)cc(Br)cc2C1(O)N1CCOCC1 (stereo not shown) | 12.2% |
| CNCCCOc1ccc(C)cc1OC.O=C(O)C(=O)O | 14.4% |
| Cc1c(C(=O)O)oc2ccc(S(=O)(=O)N3CCCC3)cc12 | 22.9% |
| Cc1ccc(N2C(=O)CN(Cc3cccs3)C2=S)cc1C | -0.433% |
| O=S(=O)(Nc1cccc(CCc2ccccn2)c1)c1cc(Cl)ccc1Cl | 9.34% |
| CCC(C)NC(=O)c1ccccc1NC(=O)C1COc2ccccc2O1 (stereo not shown) | 9.55% |
| Cc1ccc(NC(=O)COc2coc(CN3CCc4ccccc4C3)cc2=O)cc1Cl | 7.76% |
| O=C(Cc1n[nH]c(=O)c2ccccc12)Nc1cccc(S(=O)(=O)N2CCCC2)c1 | 5.91% |
| Cc1cccc(C(=O)NCCNC(=O)c2cnccn2)c1 | 11.9% |
| Cc1ccc(N2C(=O)N3[C@H]4c5ccccc5OC[C@@H]4[C@@H](c4ccccc4)[C@@]3(C)C2=O)cc1 | 16.3% |
| C=C1C(=O)C=C2CN(C(=O)c3ccccc3)[C@@](Cc3ccc(F)cc3)(C(=O)OC)[C@@H]12 | 14.2% |
| Cc1csc(NC(=O)CCC(=O)c2cccs2)n1 | -0.468% |

| SMILES | hERG current change (%, negative = inhibition) at 1uM |
| --- | --- |
| COc1ccc(C2(C(=O)NCc3ccccc3Cl)CCOCC2)cc1OC | -2.52% |
| COc1ccc(OC)c(S(=O)(=O)N2CCC(C(=O)NCCc3ccc(OC)c(OC)c3)CC2)c1 | 10.5% |
| COC(=O)C1=C(C(=O)OC)[C@@H]2N(C)c3ccc(OC)cc3[C@@]23C[C@@H](C(=O)OC)N(C(=O)CC(C)C)C3=N1 | 7.86% |
| O=C(OCc1cc2ccccc2[nH]c1=O)C1CCCCC1 | 5.48% |
| CC(C(=O)Nc1ccc(C#N)cc1)N(C)Cc1cccs1 (stereo not shown) | -15.2% |
| O=C(c1ccc(-n2cccn2)cc1)N1CCN(c2ncccc2C(F)(F)F)CC1 | -16.4% |
| CCN(CC)S(=O)(=O)c1cccc(NC(=O)CSc2nnc(N)s2)c1 | 11.4% |
| CCOC(=O)C1=C(c2ccccc2)NC(=S)NC1c1ccc(Cl)cc1 (stereo not shown) | 9.49% |
| O=S(=O)(c1ccc(F)cc1)N1CCCC1c1cccnc1 (stereo not shown) | 6.46% |
| Cc1ccc(SC(C)C(=O)Nc2ccc(S(=O)(=O)N3CCOCC3)cc2)cc1 (stereo not shown) | -12.1% |
| COC(=O)c1ccc(N2CCN(CCNC(=O)Nc3ccc(OC)cc3)CC2)cc1 | 13.4% |
| COc1cc(CN2CCNC(=O)C2CC(=O)N2CCCN(C(C)=O)CC2)cc(OC)c1 (stereo not shown) | 14.3% |
| CCOC(=O)/C=C1\CN(Cc2cc(OC)c(OC)c(OC)c2)S(=O)(=O)c2ccc(C(F)(F)F)cc21 | 3.43% |
| C=CCNC(=O)C1CCN(c2c([N+](=O)[O-])cc(C(F)(F)F)cc2[N+](=O)[O-])CC1 | 13.4% |
| Cc1ccc(Nc2c(-c3ccc(N4CCOCC4)cc3)nc3ncccn23)cc1C | 12.6% |
| CC(=O)N(CCC(Cc1ccccc1)c1ccc2c(c1)OCO2)Cc1ccc(Cl)cc1 (stereo not shown) | 6.14% |
| O=[N+]([O-])c1ccccc1/C=C/C=N/n1c(-c2ccco2)n[nH]c1=S | 15.5% |
| CCC(=O)N1CCC(C(N)=O)(N2CCCCC2)CC1 | 1.73% |
| Nc1nc(C(F)(F)F)cc(=O)n1N | 6.55% |
| COC(=O)c1ccc(NC(=O)CN2CCN(c3cccc(Cl)c3)CC2)cc1 | 5.72% |
| O=C(NCc1ccc2c(c1)OCO2)C1CC(=O)N(CCc2ccc(F)cc2)C1 (stereo not shown) | -13.1% |
| O=C(CSc1nccc(=O)[nH]1)Nc1ccc(N2CCOCC2)cc1 | 1.7% |

| SMILES | hERG current change (%, negative = inhibition) at 1uM |
| --- | --- |
| COc1ccc(N2C(=O)CC(Sc3nc(C)cc(C)n3)C2=O)cc1OC (stereo not shown) | 13.5% |
| CC(=O)C1=NN(c2ccccc2)C(c2ccc3c(c2)OCO3)N1c1ccccc1 (stereo not shown) | 9.59% |
| Cc1c(Cl)cccc1NC(=O)CCC(=O)c1cccs1 | 14.1% |
| Cc1ccc(S(=O)(=O)N(C)C)cc1NC(=S)NC(=O)C12CC3CC(CC(C3)C1)C2 | 11.1% |
| COc1cccc(CNC(=O)c2cc(S(=O)(=O)N3CCCCC3)c[nH]2)c1 | 11.9% |
| CCCCn1c(N)c(N(CC(C)C)C(=O)c2ccc(-c3ccc([N+](=O)[O-])cc3)o2)c(=O)[nH]c1=O | -3.68% |
| Cc1cc(C)c(OCCNCc2ccccc2)c(C)c1.O=C(O)C(=O)O | 16.1% |
| CNc1nc(SC)nc(N(C)C#N)n1 | 4.83% |
| Cc1cc(NS(=O)(=O)c2ccc(N3C(=O)C4C5C=CC(C5)C4C3=O)cc2)nc(C)n1 (stereo not shown) | 13.3% |
| O=C(CN(c1ccc(F)cc1)S(=O)(=O)c1ccc2c(c1)OCCO2)Nc1ccccc1 | 0.422% |
| O=[N+]([O-])c1ccc(-c2nc(Nc3ccc(O)cc3)c3ccccc3n2)cc1 | 13% |
| O=C(NCc1ccc2c(c1)OCO2)C1CC(=O)N(C2CCCCCC2)C1 (stereo not shown) | 3.61% |
| CCc1cc2c(=O)c(-c3nc4ccccc4n3C)c(C)oc2c(CN(CC)CC)c1O | 2.2% |
| COc1ccccc1NC(=O)CC12CC3CC(CC(Br)(C3)C1)C2 | 10.8% |
| Cn1c(CNC(=O)c2ccco2)nnc1SCC(=O)Nc1cccc(Br)c1 | -1.61% |
| COc1ccccc1C(=O)Nc1ccc2c(c1)OCO2 | 6.37% |
| CC(C)(C)OC(=O)NCCCC[C@@H](C(=O)N1CCN(C(=O)OC(C)(C)C)CC1)n1cc(CCC(=O)O)nn1 | 7.72% |
| Cc1cc(C(=O)N/N=C/c2ccc(OC(=O)c3ccccc3Br)cc2)n[nH]1 | 6.26% |
| Cc1nn(C)cc1CNCc1ccc(OCC(O)CN(C)Cc2ccccc2)cc1 (stereo not shown) | 8.6% |
